Source: PMC4336329 (PLoS ONE, 2015)
Out of some 310,000 compounds screened, about 14,000 (4.5%) showed an effect of 50% or more. The effect is printed as a negative number. Some of the results follow.

These compounds were tested against human ether-à-go-go-related gene (hERG) potassium channel (human, UniProt Q12809) (assay: primary screen, population patch clamp on CHO cells stably expressing hERG).
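Also: peak tail current of the secondary pulse compared with the same well before compound.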

Chain of human ether-à-go-go-related gene (hERG) potassium channel (Q12809 whole entry, looked up): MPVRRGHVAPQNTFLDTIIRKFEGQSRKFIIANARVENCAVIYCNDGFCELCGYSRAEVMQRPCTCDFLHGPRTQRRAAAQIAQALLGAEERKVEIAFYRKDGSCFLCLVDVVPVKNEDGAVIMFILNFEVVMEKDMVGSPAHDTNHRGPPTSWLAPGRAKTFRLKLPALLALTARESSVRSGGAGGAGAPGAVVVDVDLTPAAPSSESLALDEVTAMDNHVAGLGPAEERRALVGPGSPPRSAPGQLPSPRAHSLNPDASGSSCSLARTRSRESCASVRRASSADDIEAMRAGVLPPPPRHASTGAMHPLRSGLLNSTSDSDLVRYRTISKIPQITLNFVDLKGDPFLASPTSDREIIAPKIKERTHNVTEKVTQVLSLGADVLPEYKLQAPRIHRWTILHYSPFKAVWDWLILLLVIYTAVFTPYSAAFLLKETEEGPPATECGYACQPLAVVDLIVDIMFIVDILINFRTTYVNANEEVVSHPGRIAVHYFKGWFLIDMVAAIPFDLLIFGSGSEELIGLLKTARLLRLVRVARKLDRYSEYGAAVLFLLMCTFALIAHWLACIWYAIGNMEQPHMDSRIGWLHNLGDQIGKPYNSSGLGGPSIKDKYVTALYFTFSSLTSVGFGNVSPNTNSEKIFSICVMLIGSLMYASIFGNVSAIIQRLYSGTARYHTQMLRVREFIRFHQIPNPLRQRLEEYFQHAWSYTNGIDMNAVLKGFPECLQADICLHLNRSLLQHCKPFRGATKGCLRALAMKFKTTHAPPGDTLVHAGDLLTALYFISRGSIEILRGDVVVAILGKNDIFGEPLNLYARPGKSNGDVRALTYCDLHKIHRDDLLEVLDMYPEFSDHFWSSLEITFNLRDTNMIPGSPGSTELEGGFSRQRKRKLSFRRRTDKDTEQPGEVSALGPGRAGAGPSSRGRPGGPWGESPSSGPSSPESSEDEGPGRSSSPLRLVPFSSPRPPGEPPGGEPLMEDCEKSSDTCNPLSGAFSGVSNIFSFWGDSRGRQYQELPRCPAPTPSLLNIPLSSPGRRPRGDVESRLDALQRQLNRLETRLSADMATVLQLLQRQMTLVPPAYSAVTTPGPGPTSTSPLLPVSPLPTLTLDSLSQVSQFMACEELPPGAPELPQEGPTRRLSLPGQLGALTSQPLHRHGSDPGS

| SMILES | hERG current change (%, negative = inhibition) at 10uM [%] |
| --- | --- |
| COc1ccc(CC(=O)Nc2ccc(-c3cn4ccccc4n3)cc2)cc1 | -7.85 |
| O=C(c1ccco1)C12CN3CN(CN(C3)C1)C2 | 3.62 |
| Nc1nonc1-n1nnc(C(=O)N/N=C/c2cc(Br)cs2)c1-c1ccccc1 | 20.8 |
| O=C(CCn1cnc2ccccc2c1=O)Nc1ccc2c(c1)OCCO2 | 15.1 |
| Cc1ccc(-c2ccc(CCC(=O)O)n2NC(N)=S)cc1 | -1.9 |
| O=C(O)Cc1ccc2ocnc2c1 | 12 |
| O=c1c2cc(F)ccc2sn1-c1ccc(F)cc1 | 12 |
| COc1ccc(S(=O)(=O)N2CCCCCC2)cc1N | -11.5 |
| Cc1ccc(Cc2cc(-c3ccc(C)cc3)n[nH]c2=O)cc1 | 8.58 |
| O=C1C2CCCCN2C(=O)N1CCCCN1CCN(c2ccc([N+](=O)[O-])cc2)CC1 (stereo not shown) | -75.8 |
| CCn1c(CNc2ccccc2Cl)nnc1SCCN1CCCCC1 | -36.6 |
| COC(=O)c1cccc(NC(=O)c2ccco2)c1 | 4.02 |
| O=C(Nc1ccccc1)C(=O)Nc1ccccn1 | 3.99 |
| COCCCn1c(=O)c2sccc2n2c(CCCC(=O)NCc3ccccc3OC)nnc12 | -19.9 |
| COc1ccc(Cl)cc1C(=O)NCC#N | 12.1 |
| COc1ccc(NC(=O)COc2cccc(C(F)(F)F)c2)cn1 | 6.7 |
| Cc1cc(N)n(Cc2cccs2)n1 | -2.95 |
| CCOC(=O)c1sc(NC(=O)C2CC2)nc1C | -1.21 |
| CCOC(=O)c1ccc(NC(=O)Nc2ccccn2)cc1 | 17.3 |
| COc1ccc(OC)c(NC(=O)c2nnn(CCc3ccccc3)c2N)c1 | 7.83 |
| O=C(N/N=C/c1ccccn1)c1ccc(Br)o1 | 0.268 |
| COC(=O)CCC(=O)c1oc2ccc(Cl)cc2c1NC(=O)CCCN1C(=O)c2ccccc2C1=O | 1.89 |
| CC(=O)Nc1ccc(S(=O)(=O)NCCc2c[nH]c3ccc(C)cc23)cc1 | 26.2 |

| SMILES | hERG current change (%, negative = inhibition) at 10uM [%] |
| --- | --- |
| O=c1c2cnn(-c3ccc(F)cc3)c2ncn1Cc1cccnc1 | -1.94 |
| CCc1nnc(/N=C/c2c(O)n(-c3ccc(Cl)cn3)c(=O)c3ccccc23)s1 | -7.69 |
| O=C(NC1CCN(S(=O)(=O)c2ccc(F)cc2)CC1)c1ccccc1 | 7.65 |
| O=C(CSc1ncccn1)Nc1ccc(S(=O)(=O)N2CCCCC2)cc1 | -12.9 |
| COc1cccc2c(SCC(=O)N/N=C/c3ccc(O)c(O)c3)cc(C)nc12 | 18.3 |
| COc1ccc(C(=O)OCn2nnc3ccccc3c2=O)cc1OC | 8.71 |
| Nc1nnc(SCC(=O)NC2CCCCC2)s1 | 7.32 |
| COc1cccc(Cn2cnc3c(NS(=O)(=O)c4ccc(Cl)cc4Cl)c(C)c(C)cc32)c1 | 5.02 |
| CCC(=O)Nc1c(C(=O)N2CCN(c3ccccn3)CC2)cnn1-c1ccc(Cl)cc1 | -17.3 |
| CCCC(=O)Nc1ccc(C(=O)NCc2ccccn2)cc1 | 14.2 |
| CC(C)OCCCNC(=O)c1ccc(N(C)S(C)(=O)=O)cc1 | 13.3 |
| COc1ccc(N2C(=O)C(CN3CCCCC3)C2c2ccccc2)cc1 (stereo not shown) | -12 |
| COc1ccccc1-c1noc(CCCC(=O)NC2CCCCC2)n1 | 3.66 |
| COc1ccccc1CN1CC(C(=O)NCc2cccc(C)n2)CCC1=O (stereo not shown) | 14 |
| Cc1ccc(C(=O)OCC(=O)c2c(N)n(C)c(=O)n(C)c2=O)cc1S(=O)(=O)N1CCCCC1 | -21.7 |
| Cc1cc2cc(CN(CC3CCCO3)C(=S)NCc3ccco3)c(=O)[nH]c2cc1C (stereo not shown) | -9.05 |
| CC(CC(=O)O)Nc1ccccc1O (stereo not shown) | 9.04 |
| CC(Sc1nnc(Cn2c(=O)sc3ccccc32)n1C)c1ccccc1 (stereo not shown) | -23.9 |
| O=C(Cn1ncc(Cl)c(Cl)c1=O)Nc1ccc2c(c1)OCO2 | 0.75 |
| O=c1[nH][nH]c(-c2ccccc2O)c1C(C[N+](=O)[O-])c1ccccc1 (stereo not shown) | 20.9 |
| O=C(CN1CCN(S(=O)(=O)c2ccc(Br)s2)CC1)N1CCCCC1 | -23.3 |
| CC(=O)Nc1ccc(S(=O)(=O)N(C)CC(=O)N/N=C/c2ccncc2)cc1 | 22.3 |
| Cc1ccc2nc(SC(C)C(=O)NCc3ccc4c(c3)OCO4)[nH]c2c1 (stereo not shown) | -7.47 |
